Assay [1] has as its target T1, chimeric human IL-13Rα1-Fc (human, UniProt P78552 22-343).
T1 construct: Bought (R & D Systems); Extracellular domain of IL-13Rα1 fused to Fc of human IgG; Expressed as preformed disulphide-bonded dimer; also called hIL-13Rα1-Fc; chimeric human receptor; not shown: Fc portion of human IgG
T1 sequence: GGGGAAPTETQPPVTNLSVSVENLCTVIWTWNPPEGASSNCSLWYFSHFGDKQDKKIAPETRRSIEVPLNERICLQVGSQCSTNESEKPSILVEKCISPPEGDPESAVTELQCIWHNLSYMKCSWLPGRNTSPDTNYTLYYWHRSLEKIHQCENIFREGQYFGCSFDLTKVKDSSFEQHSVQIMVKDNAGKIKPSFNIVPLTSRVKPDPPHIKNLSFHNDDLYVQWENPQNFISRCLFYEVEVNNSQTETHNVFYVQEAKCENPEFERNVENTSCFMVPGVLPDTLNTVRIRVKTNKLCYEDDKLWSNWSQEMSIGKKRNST
The assay is described as follows: Biosensor, immobilized human IL-13, chimeric receptor in solution. From the text:
(§1) A qualitative comparison of sensorgrams obtained in this study to data obtained previously with monomeric receptor protein, indicated a substantial improvement in binding kinetics. This improvement is attributed to a much slower off-rate for the dimeric form, compared with the monomeric form, of the receptor. To further quantify this interaction a complete dose-response analysis using both human and mouse chimeric receptor proteins and immobilized human and mouse IL-13 was undertaken.

Assay [2] has as its target T2, chimeric mouse IL-13Rα1-Fc (mouse; human, UniProt O09030 26-340).
T2 construct: extracellular domain; Bought (R & D Systems); Preformed disulphide-bonded dimer; also called mIL-13Rα1-Fc; chimeric mouse receptor; not shown: Fc portion of human IgG
T2 sequence (looked up): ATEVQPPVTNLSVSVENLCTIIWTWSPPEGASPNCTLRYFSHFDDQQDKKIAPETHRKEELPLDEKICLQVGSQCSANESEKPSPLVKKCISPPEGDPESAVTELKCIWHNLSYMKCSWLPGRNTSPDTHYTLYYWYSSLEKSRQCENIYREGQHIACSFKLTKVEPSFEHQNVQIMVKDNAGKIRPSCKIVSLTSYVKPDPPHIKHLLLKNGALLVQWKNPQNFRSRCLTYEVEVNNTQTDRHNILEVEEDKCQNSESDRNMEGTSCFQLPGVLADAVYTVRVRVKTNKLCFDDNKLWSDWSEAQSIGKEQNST
The assay is described as above.
From the text: as §1

One molecule from patent US20050058645A1 (ZENYTH OPERATIONS, published 2005) can be followed below.

B1: human IL-13 (ligand)
chain: not shown
In the case of B1, the values for the Kd in assay [1] and in assay [2] were 5.93 nM and 0.784 nM, respectively.
